Test results from PMC5354511, “Autophosphorylation-based Calcium (Ca^2+) Sensitivity Priming and Ca^2+/Calmodulin Inhibition of Arabidopsis thaliana Ca^2+-dependent Protein Kinase 28 (CPK28)*^([image sbox.jpg])^♦” (The Journal of Biological Chemistry, 2017).
No constants are given. Whether binding was seen depends on the method and setting. Some results given as binding are weak or reduced against the parent protein; the word gives no strength.

Legend:
[1] = target: recombinant CaM6 (untagged) (UniProt Q03509); assay: native gel or EMSA; 240 pmol CaM with an equal amount of synthetic peptide in 20 μl 25 mM Tris-HCl pH 7.5, 100 μM CaCl2, 60 min, room temperature; non-denaturing PAGE with 100 μM CaCl2; both purified
[2] = target: recombinant CaM6 (untagged) (UniProt Q03509); assay: native gel or EMSA; as a9 but with 2 mM EGTA in the reaction and the gel (absence of Ca2+); both purified
[3] = target: recombinant CaM6 (untagged) (UniProt Q03509); assay: native gel or EMSA; CaM (240 pmol) with different amounts of LL22 or pLL22 peptide in the ratios indicated, 20 μl, 60 min, then native PAGE; both purified
[4] = target: recombinant CaM6 (untagged) (UniProt Q03509); assay: condition: 240 pmol peptide with 240 pmol CaM in 20 μl; native gel or EMSA; 240 pmol CaM with an equal amount of synthetic peptide in 20 μl 25 mM Tris-HCl pH 7.5, 100 μM CaCl2, 60 min, room temperature; non-denaturing PAGE with 100 μM CaCl2; both purified

Binder | binding [4] | other results
LKWKKLLKLLKKLLKLG [W3 peptide (high affinity CaM-binding peptide)] |  | binding [1]: binds
LRQFVRYSRLKQFALRALASTL (source: synthetic peptide (LifeTein)) [LL22 peptide (CPK28 autoinhibitory junction)] |  | binding [1]: binds; binding [2]: no binding (condition: in the absence of Ca2+ (2 mM EGTA))
LRQFVRYSRLKQFALRALASTL (phosphoserine at Ser-360) [pLL22 peptide (LL22 phosphorylated at Ser-360)] |  | binding [3]: binds
RILSKKGNRYSEKDAAVVVRQMLKVAG [RG27 peptide (predicted CaM-binding site of CPK28)] | no binding | 
FIKPGKRFHDIVGSAYYVA [FA19 peptide (predicted CaM-binding site of CPK28)] | no binding | 
RKPWATISDSAKDFVKKLLVK [RK21 peptide (C-terminal end of the CPK28 kinase domain)] | no binding | 
FVKKLLVKDPRARLTAAQALSHAWVR [FR26 peptide (C-terminal end of the CPK28 kinase domain)] | no binding | 
